For test [1], the system named is region surrounding the AUG start codon of the human c-myc gene. The experiment in a line: Cell-free translation assay (rabbit reticulocyte lysate), c-myc:fLUC. Conditions: cell-free RRL translation, FIG. 28. The source says:
This placed the c-myc coding sequences in frame with the amino acid coding sequences of the fLUC gene (c-myc:fLUC). A PMO targeting this region of c-myc, designated AVI-4126, is listed as SEQ ID NO: 5.
A plasmid construct with a 30 base pair region surrounding the ATG start codon of the human c-myc gene was placed in frame with the amino acid coding sequences of the fLUC gene (c-myc:fLUC). A PMO targeting this region of c-myc, AVI-4126, is listed as SEQ ID NO: 5.

Test [2] deals with sequence of murine hepatitis virus (MHV) that surrounds the start codon of the lab gene. The experiment in a line: Cell-free translation assay (rabbit reticulocyte lysate), MHV sequence fused to fLUC. The format is biochemical. Particulars: all the above described cases, including the MHV target. The source says:
A similar construct using a portion of the murine hepatitis virus (MHV) genome was constructed in the same vector (pCNlucr) by inserting nucleotides 188 to 230 of MHV (Genbank accession number AF029248) into the NheI and SalI sites of pCNlucr. This fragment of MHV contains nucleotides −22 to +21 relative to the “A” of the AUG of the MHV Orf 1a gene and generates a fusion protein with the luciferase reporter gene. The PMO that targets this region is SEQ ID NO: 9.

Square brackets hold non-standard residues; d marks the D form. Ends that are not written are not given here. Ahx = NCCCCCC(=O)O

As to “RAhxRRAhxRRAhxRRAhxR (R[Ahx]RR[Ahx]RR[Ahx]RR[Ahx]R) [(RAhxR)4]”, in test [1], the “antisense effect of the conjugated c-myc PMO compared to unconjugated PMO” value is recorded as “enhanced antisense effect”.

As to “RRRRRRRRRFF [R9F2, transport peptide; results under this label are for its PMO conjugates]”, in test [2], the “enhancement of antisense effectiveness compared to unconjugated PMO” value is no more than 500 fold.

(Values after patent US10905782B2, “Compositions for enhancing transport of molecules into cells” (priority 2003, dated 2021).)
